Paper PMC6919601, “Identification of Plasmodium dipeptidyl aminopeptidase allosteric inhibitors by high throughput screening” (PLoS ONE, 2019)
Out of some 110,000 compounds screened, about 230 (0.21%) showed an effect of 50% or more. The list shows a part of the results.

Target: DPAP1 (Plasmodium falciparum, UniProt Q8IIJ9)
Assay: primary screen, percent inhibition; read by cleavage of a fluorogenic dipeptide substrate; higher = more effect of the substance
Design: species or system P. falciparum D10 trophozoite lysates; single well
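Further: 30 min substrate incubation versus DMSO and 10 µM JCP410 controls.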

DPAP1, sequence (Q8IIJ9 whole entry, looked up): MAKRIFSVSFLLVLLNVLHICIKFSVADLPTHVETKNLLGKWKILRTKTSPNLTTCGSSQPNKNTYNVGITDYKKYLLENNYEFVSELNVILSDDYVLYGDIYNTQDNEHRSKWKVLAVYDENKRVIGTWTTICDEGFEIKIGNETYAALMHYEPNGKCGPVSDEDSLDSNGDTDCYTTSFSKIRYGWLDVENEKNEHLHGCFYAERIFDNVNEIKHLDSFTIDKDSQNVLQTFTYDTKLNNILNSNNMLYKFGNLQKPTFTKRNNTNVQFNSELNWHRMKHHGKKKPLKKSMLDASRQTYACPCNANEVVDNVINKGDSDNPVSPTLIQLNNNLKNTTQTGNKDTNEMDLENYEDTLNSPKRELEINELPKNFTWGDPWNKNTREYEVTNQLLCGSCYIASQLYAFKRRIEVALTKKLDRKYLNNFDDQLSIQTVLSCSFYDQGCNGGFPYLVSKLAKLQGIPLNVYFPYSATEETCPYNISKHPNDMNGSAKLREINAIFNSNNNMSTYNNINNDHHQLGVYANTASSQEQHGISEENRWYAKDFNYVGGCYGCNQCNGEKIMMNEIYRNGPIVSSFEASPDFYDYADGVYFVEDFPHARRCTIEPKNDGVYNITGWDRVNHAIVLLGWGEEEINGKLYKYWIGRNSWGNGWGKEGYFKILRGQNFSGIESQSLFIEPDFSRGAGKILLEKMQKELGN

Compound	% Inhibition @ 10 uM
CCc1ccc(CN(C(=O)c2cc(=O)c3cc(Cl)ccc3o2)C2CCS(=O)(=O)C2)cc1 (stereo not drawn)	3.51%
Cc1ccc(C2=NC3(CCN(C(=O)Cc4ccccc4)CC3)NC2=O)cc1	-0.238%
C=CCn1c(C(C)Oc2cccc(C)c2)nc2ccccc21 (stereo not drawn)	3.61%
Cc1cccc(N2CCN(C(=O)c3ccc([N+](=O)[O-])cc3Cl)CC2)c1C	-5.62%
CC(O)CN(Cc1ccccc1F)CC(C)O (stereo not drawn)	-8.99%
CC1(C)Cc2c(ccc3ccccc23)CN1C(=O)c1ccccc1	0.27%
O=C(Cn1nc(C(F)(F)F)cc1C1CC1)Nc1ccc(C(=O)N2CCOCC2)cc1	1.59%
Fc1ccc(-c2noc3ncnc(N4CCC(Cc5ccccc5)CC4)c23)cc1	-3.83%
CCOC(=O)N1CCC(c2nc(C)sc2C(=O)NCc2ccc(Cl)cc2)CC1	-4.74%
O=C(Cn1ncc2c3ccccc3nc-2c1O)NCC1CCN(Cc2ccccc2F)CC1	1.66%
CC(=O)c1ccc(N2CCN(Cc3ccsc3)CC2)cc1	1.38%
CCCCNC(=O)C1CCN(c2nc3ccccc3n3cccc23)CC1	-7.65%
OCCCN1CCN(CCOc2ccccc2-c2ccccc2)CC1	-0.519%
CCOC(=O)N1CCC(NC(=O)C2CCN(S(=O)(=O)c3c[nH]cn3)CC2)CC1	1.23%
O=C(COc1ccccc1)Nc1nc2ccccc2s1	3.44%
CCC(C)NC(=O)C1c2ccccc2C(=O)N(CCOC)C1c1cccs1 (stereo not drawn)	-0.326%
COc1ccc2[nH]c3c(=O)n(CC(=O)NCCC4=CCCCC4)c(=S)[nH]c3c2c1	2.54%
CCn1nc(C)c(NC(=O)Cc2ccc(Cl)cc2)c1C	-9.31%
CCOC(=O)C1CCCN(CCCCCCC=C(C)C)C1 (stereo not drawn)	4.9%
COc1ccc(/C=C(\NC(=O)c2ccccc2)C(=O)OCC2CCCN3CCCCC23)cc1OC (stereo not drawn)	-1.55%
CCCC[C@H](NC(=O)OCC(C)C)C(=O)c1nnc(-c2ccco2)o1	1.7%

Compound	% Inhibition @ 10 uM
N#CCNC(=O)C(CC1=CCCC1)NC(=O)OCc1ccccc1 (stereo not drawn)	-3.49%
O=C1c2ccccc2C(=O)N1Cc1ccccc1O	-3.23%
Cc1sc2nc(SCC(=O)c3ccc(O)c(O)c3)nc(O)c2c1C	8.95%
CCn1c2ccc(F)cc2c2nnc(SCCN3CCCCC3)nc21	0.627%
Cc1ccc(C(=O)c2oc3ccc(Cl)cc3c2N)cc1	-7.4%
CNC(=O)/C(=C\c1ccc2c(c1)OCO2)NC(=O)c1ccccc1OC	-0.941%
O=C(Nc1c(C(=O)N2CCCCCC2)cnn1-c1ccccc1)c1ccccc1	1.78%
O=C(CSc1ccc(Br)cc1)Nc1cc(F)ccc1F	2.51%
Cc1ccc(NC(=O)c2cc3c(=O)oc4ccccc4c3s2)nc1	2.73%
CCOC(=O)Nc1cc(C(=O)OCC)c(C)nc1C	-7.09%
CCN(CC)C(=O)C1CCCN(c2ncnc3c2cnn3-c2cccc(C)c2)C1 (stereo not drawn)	-1.44%
CCOc1ccc(NC(=O)c2cccnc2)cc1	-4.08%
CCOC(=O)C1=C(C)OC(N)=C(C#N)C1c1ccc(Cl)cc1Cl (stereo not drawn)	3.1%
COc1cc(SC)ccc1C(=O)NC1CCCC1	0.121%
CC(C)(CO)NC(=O)C(Cc1ccccc1)N1C(=O)c2ccccc2C1=O (stereo not drawn)	-3.5%
Cc1c(C(=O)NCCCOC(C)C)sc2nc3n(c(=O)c12)CCCCC3	0.372%
COc1cc(CN2CCN(c3cccc(C(F)(F)F)c3)CC2)c([N+](=O)[O-])cc1OC	-6.47%
CCOC(=O)c1c(C)oc2c1c(/C=N/c1cccc(C)n1)c(O)c1ccccc12	-7.02%
CC1(C)Cn2c(nc(=O)c3c2NC(=O)C3(NC(=O)c2ccccc2)C(F)(F)F)S1 (stereo not drawn)	8.81%
COc1cc(OC)cc(C(=O)Nc2nc(-c3nnn(-c4ccc(C)c(C)c4)c3C)ns2)c1	-1.92%
Cc1ccc(OCC(=O)Nc2ccccc2NC(=O)COc2ccc(C)cc2)cc1	-0.992%

Compound	% Inhibition @ 10 uM
COc1cc(/C=C(\C#N)c2nc3ccccc3[nH]2)cc(Br)c1OC	-4.33%
COc1cc(CN2CCN(Cc3cccc(Cl)c3)CC2)cc(OC)c1OC	0.643%
O=C(O)c1cc(Nc2ccccc2)c(C(=O)O)cc1Nc1ccccc1	-0.129%
CC(C)CN1C(=O)c2ccccc2C(C(=O)NCCCN(C)Cc2ccccc2)C1c1cccs1 (stereo not drawn)	2.78%
CCC(CC)C(=O)Nc1ccc(C(=O)c2ccccc2)cc1	0.843%
CCc1ccc(-n2c(SC(CC)C(=O)N3CCOCC3)nc3nnc(C)c-3c2N)cc1 (stereo not drawn)	2.8%
Cc1ccccc1NC(=O)Cn1nc(C(F)(F)F)cc1C1CC1	1.57%
CC(C)CC(C(=O)NCC#N)c1cccc(-c2cc(F)ccc2O[C@H]2CCNC2)c1 (stereo partly drawn)	-6.56%
CCN1C(=O)S/C(=C\c2cc3c(cc2Br)OCO3)C1=O	3.17%
CCC1=C(c2ccc(C)cc2)S(=O)(=O)N=C1N1CCC(C(=O)NC2CCCCCC2)CC1	-3.53%
CCn1c2ccc(OC)cc2c2nc3ccccc3nc21	-3.13%
Brc1ccc(CSc2nc3ccccc3o2)cc1	-7.8%
COC(=O)c1ccccc1S(=O)(=O)NC(=O)Nc1nc(C)nc(OC)n1	-0.999%
O=C(Cn1ncc2ccc(Cl)cc21)NC1CCCc2ccccc21 (stereo not drawn)	0.596%
CCOC(=O)N1CCN(C(=O)CSc2nnc(Cc3cccn3C)n2-c2ccc(OC)cc2)CC1	-5.76%
COC(=O)C1=C(C)OC(n2cccc2)=C(C#N)C1c1cc(OC)c(O)c(OC)c1 (stereo not drawn)	6.73%
Cc1nnc(NC(=O)NCCc2ccccc2)s1	-0.0678%
COc1ccc(S(=O)(=O)NCCSc2ccccn2)cc1	2.32%
O=C(/C=C/c1cccc([N+](=O)[O-])c1)N1CCCCCC1	1.35%
O=C1OC(c2ccc(Br)o2)=N/C1=C/c1cc(Br)cs1	-0.972%
CC(C)(C)c1ccc(Oc2nc3ccccn3c(=O)c2/C=C(\C#N)C(=O)NCC2CCCO2)cc1 (stereo not drawn)	0.189%
